Among all 310,000 compounds or so, about 14,000 (4.5%) showed an effect of 50% or more. The effect is printed as a negative number. The list shows a part of the results.
The molecules below were run against human ether-à-go-go-related gene (hERG) potassium channel (human, UniProt Q12809) (assay: primary screen, population patch clamp on CHO cells stably expressing hERG).
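Also: peak tail current of the secondary pulse compared with the same well before compound.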

human ether-à-go-go-related gene (hERG) potassium channel, sequence (Q12809 whole entry, looked up): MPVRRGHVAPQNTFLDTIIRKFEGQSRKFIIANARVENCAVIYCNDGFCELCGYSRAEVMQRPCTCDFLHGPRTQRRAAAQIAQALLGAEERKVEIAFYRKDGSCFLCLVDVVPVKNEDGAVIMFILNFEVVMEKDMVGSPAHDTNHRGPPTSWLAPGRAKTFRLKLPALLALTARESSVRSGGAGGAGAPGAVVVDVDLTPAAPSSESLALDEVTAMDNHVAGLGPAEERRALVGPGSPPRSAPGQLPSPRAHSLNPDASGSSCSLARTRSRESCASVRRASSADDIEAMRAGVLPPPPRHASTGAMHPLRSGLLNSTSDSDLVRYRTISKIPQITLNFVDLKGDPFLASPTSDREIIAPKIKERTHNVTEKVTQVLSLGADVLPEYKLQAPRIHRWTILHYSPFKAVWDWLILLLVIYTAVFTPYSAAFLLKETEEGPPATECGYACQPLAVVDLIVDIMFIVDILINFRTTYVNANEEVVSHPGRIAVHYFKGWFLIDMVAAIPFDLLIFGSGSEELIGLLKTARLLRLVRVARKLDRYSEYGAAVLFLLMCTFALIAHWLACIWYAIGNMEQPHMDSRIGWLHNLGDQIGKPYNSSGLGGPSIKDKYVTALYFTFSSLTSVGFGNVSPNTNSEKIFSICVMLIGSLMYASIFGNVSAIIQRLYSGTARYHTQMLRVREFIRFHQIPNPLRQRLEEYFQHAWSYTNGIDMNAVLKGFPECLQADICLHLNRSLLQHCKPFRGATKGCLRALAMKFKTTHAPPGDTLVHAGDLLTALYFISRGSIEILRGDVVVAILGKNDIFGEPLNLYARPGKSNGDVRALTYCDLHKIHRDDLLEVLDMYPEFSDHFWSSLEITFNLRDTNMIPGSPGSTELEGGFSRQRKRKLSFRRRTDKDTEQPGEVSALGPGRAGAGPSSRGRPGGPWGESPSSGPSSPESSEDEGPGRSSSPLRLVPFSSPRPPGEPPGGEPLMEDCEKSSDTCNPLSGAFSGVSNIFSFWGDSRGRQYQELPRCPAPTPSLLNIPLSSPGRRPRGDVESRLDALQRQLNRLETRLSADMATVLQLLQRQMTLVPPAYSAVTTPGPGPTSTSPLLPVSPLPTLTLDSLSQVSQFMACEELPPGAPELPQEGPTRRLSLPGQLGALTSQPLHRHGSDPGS

Compound	hERG current change (%, negative = inhibition) at 10uM [%]
CN(C)c1nc(-c2ccccc2)c2cc(Cl)ccc2n1	15.5
Cc1cccc(NC(=S)N(CCN(C)C)C(C)c2cccnc2)c1 (stereo not drawn)	-29.4
COc1cccc(C(=O)Nc2ccc(C(=O)O)cc2)c1	5.69
Cc1cc(O)ccc1N1C(=O)c2cccc3cc([N+](=O)[O-])cc(c23)C1=O	21
CCOc1cc(/C=N/NC(=O)C2CCCC2)ccc1O	3.33
CCOC(=O)N1CCN(C(=O)c2csc3c2CCCCC3)CC1	8.08
O=C(NCc1ccccc1Cl)c1cc(C(=O)C2CC2)c[nH]1	24.7
O=C(Nc1ccc(C(=O)NC2CCCCC2)cc1)c1cncc(Br)c1	7.95
C=CCn1c(SCn2nnc3ccccc3c2=O)nc2scc(-c3cccs3)c2c1=O	-5.21
CCOC(=O)C1=C(C)Nc2ncnn2C1c1cc(OC)ccc1OC (stereo not drawn)	7.14
COc1ccc(C(=O)C2CCCN(C(=O)/C=C/c3ccccn3)C2)c(C)c1 (stereo not drawn)	-4.66
COc1ccc(Br)cc1CN(C)CC(=O)NCCc1ccc(S(N)(=O)=O)cc1	-31.8
CCc1sc(N(C(=O)Cc2ccccc2)c2ccccc2)nc1-c1ccccc1	9.11
O=C(OCCCc1cc2ccccc2c(=O)o1)c1ccc(C(F)(F)F)cc1	-6.59
CC1CCc2c(sc3nc(SCC(=O)NCc4ccco4)nc(N)c23)C1 (stereo not drawn)	-3.53
CCc1c(C)nc(SC(C(=O)O)c2ccccc2)c(C#N)c1C (stereo not drawn)	-14.2
CC(=O)N1c2ccc(S(=O)(=O)NCCC(=O)NCCc3cccc(C)c3)cc2CC1C (stereo not drawn)	-4.31
CCN(C(=O)COc1cc(=O)n(CC)c2ccccc12)c1cccc(Cl)c1	-40.9
Cc1nc(SCC(=O)c2cccc([N+](=O)[O-])c2)n[nH]1	5.2
O=C(O)c1cccc(Nc2c3ccccc3nc3ccccc23)c1	19.7
C=C(C)Cn1c(=O)c(NC(=O)c2ccccc2)c2n(c1=S)CCC2	0.462
CCCC(=O)c1ccc(N2CCCCCC2)c(F)c1	-17.9
CC1CC(C)CN(C(=O)c2cccc3c2-c2ccccc2C3=O)C1 (stereo not drawn)	-18.8
COc1cc(C(CCN2CCOCC2)c2c(OC)cc(OC)c3c2OC(=O)CC3c2ccc(N(C)C)cc2)cc(OC)c1OC (stereo not drawn)	-1.75

— publication PMC4336329 (PLoS ONE, 2015)
